Test results as given in PubChem BioAssay AID1468 (National Center for Advancing Translational Sciences (NCATS), 2008).
Out of some 280,000 compounds screened, about 1,100 (0.39%) were called active. This list was built around the results that the source calls inconclusive (neither active nor inactive); the mix of calls is not that of the screen. The call rests on the fitted dose curve; in most records, active means well fitted inhibition curve with a large enough effect; inconclusive means small, poorly fitted or top-dose-only effect, or effect the other way; inactive means flat fitted curve, though single readings scatter. Potencies of inconclusive entries are left out as doubtful fits.

biological target: Microtubule-associated protein tau (Homo sapiens) (UniProt P10636); assay: qHTS for Inhibitors of Tau Fibril Formation, Fluorescence Polarization; details: K18 P301L tau heparin fibrillization, Alexa594 FP, 6 h; series mostly up to 57.7 µM; further: nearly all actives have a fitted effect of over 55% in size
UniProt P10636, sequence (P10636 whole entry, looked up, the tested form may be a part): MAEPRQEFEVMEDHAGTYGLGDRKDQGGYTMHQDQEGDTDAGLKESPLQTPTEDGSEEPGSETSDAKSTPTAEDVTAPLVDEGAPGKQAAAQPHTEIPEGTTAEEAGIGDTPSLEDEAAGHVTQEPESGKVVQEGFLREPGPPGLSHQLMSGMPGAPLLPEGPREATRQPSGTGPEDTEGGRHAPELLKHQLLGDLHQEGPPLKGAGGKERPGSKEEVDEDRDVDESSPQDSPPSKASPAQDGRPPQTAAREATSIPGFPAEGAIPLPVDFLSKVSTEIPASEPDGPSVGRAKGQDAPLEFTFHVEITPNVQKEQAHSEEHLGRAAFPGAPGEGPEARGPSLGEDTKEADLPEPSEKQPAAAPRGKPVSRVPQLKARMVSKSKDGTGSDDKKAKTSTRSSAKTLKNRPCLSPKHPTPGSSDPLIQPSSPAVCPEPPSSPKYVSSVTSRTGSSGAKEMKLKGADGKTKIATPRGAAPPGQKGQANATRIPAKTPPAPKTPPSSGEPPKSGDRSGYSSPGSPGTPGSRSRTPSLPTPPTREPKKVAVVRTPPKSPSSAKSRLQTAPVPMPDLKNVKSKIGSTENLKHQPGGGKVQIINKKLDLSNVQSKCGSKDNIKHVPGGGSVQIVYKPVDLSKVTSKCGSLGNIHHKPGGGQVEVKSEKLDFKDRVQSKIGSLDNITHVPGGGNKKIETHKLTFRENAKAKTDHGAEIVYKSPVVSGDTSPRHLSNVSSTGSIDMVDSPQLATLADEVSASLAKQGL
In short: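 Human K18 P301L fragment (15 uM unlabeled plus 0.24 uM Alexa 594-labeled) in 100 mM sodium acetate pH 7 with compound, aggregation induced by 20 uM heparin for 6 hr at 37 C. ThT (30 uM) added for 1 hr, then Alexa 594 FP read.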
Potency means the concentration at half of the fitted maximal effect; tags describe the fitted curve by direction and shape.

Compound | Potency
O=C(CSc1nc2ccc(Cl)cc2[nH]1)NC1CCCc2ccccc21 (centres undefined) | inconclusive [inhibitor, single point]
Cc1ccc(C(=O)c2ccc([N+](=O)[O-])cc2)cc1 | inactive
CC1(C)CCC(C)(C)c2cc(C(=O)Nc3ccc(C(=O)O)cc3)ccc21 | inactive
CCOC(=O)C1=c2s/c(=C\c3ccncc3)c(=O)n2C(N)=C(C(=O)OC)C1c1ccncc1 (centres undefined) | inactive
Cc1ccc(S(=O)(=O)N2CCc3cc(C(=O)Nc4ccc(C(F)(F)F)cc4)ccc32)cc1 | inconclusive [inhibitor, partial curve]
CCn1c(N)c(C(=O)N2CCOCC2)sc1=S | inconclusive [inhibitor, single point]
CC1(C)CC(Nc2ccc(Nc3ccccc3)cc2)CC(C)(C)N1 | inconclusive [inhibitor, partial curve]
CCCCSc1nc(N)c(C#N)c(-c2cccs2)c1C#N | inconclusive [inhibitor, partial curve]
O=C(Cn1c2ncccc2c(=O)n1-c1ccccc1)NCc1ccccc1Cl | inconclusive [inhibitor, full curve, poor fit]
Cc1ccc(C(=O)N2CCN(C)CC2)cc1S(=O)(=O)N1CCCCC1 | inactive
C[C@H](NC(=O)c1nc[nH]c1C(=O)N[C@@H](CCCCNC(=O)OC(C)(C)C)C(=O)OC(C)(C)C)C(=O)OC(C)(C)C | inconclusive [inhibitor, single point]
Fc1ccc(-c2ccc(CNCCSc3nnnn3-c3ccccc3)o2)cc1 | inconclusive [activator, single point]
O=S(=O)(/C=C/c1ccccc1)N1CCN(c2cccc(Cl)c2)CC1 | inconclusive [inhibitor, single point]
COc1ccc(NC(=O)CCn2c(=O)c3cccn3c3cccnc32)cc1Cl | inconclusive [inhibitor, single point]
O=C1/C(=C/c2ccncc2)SC(=S)N1N1CCOCC1 | inconclusive [inhibitor, single point]
COc1cccc(NC(=O)C(Sc2nnc(Nc3ccccc3C)s2)c2ccccc2)c1 (centres undefined) | inconclusive [inhibitor, partial curve]
COc1cccc(CNC(=O)Cn2c(=O)n3nc(-c4cccc(F)c4)nc3c3ccccc32)c1 | inconclusive [inhibitor, partial curve, poor fit]
Cc1cccc(Oc2nc(CN3CCOCC3)nc3sc4c(c23)CCCC4)c1 | inconclusive [inhibitor, full curve, poor fit]
Cn1cnc2cc(OC(=O)c3ccccc3)ccc21 | inactive
Cc1ccc2oc3c(c(=O)c2c1)C(c1ccccc1F)N(CCCN(C)C)C3=O (centres undefined) | inactive
COC(=O)c1ccc(N2CCC(c3cc(-c4ccc(OC)cc4)n[nH]3)CC2)c([N+](=O)[O-])c1 | inconclusive [inhibitor, full curve, poor fit]
O=C1c2cccnc2C(=O)N1CNc1ccc(Cl)cc1 | inactive

Compound | Potency
CCCN=C(N)NCCC[C@H](N)C(=O)O | inactive
Cc1[nH]c2ccccc2c1C(=O)COC(=O)CCS(=O)(=O)c1ccccc1Cl | inactive
O=C(Nc1ccccc1)Nc1ccc2snnc2c1 | inconclusive [inhibitor, partial curve]
COc1cc2c(cc1O)C(Cc1ccc(O)cc1)[N+](C)(C)CC2 (centres undefined) | inactive
Clc1ccc2c(c1)-c1c(cnc3cc(-c4ccccc4)nn13)CO2 | inconclusive [inhibitor, partial curve]
CCN(c1ccccc1)S(=O)(=O)c1ccc(NC(=S)NC(=O)c2cccs2)cc1 | inconclusive [inhibitor, partial curve]
CSC(=NS(=O)(=O)c1ccccc1)SC | inconclusive [inhibitor, full curve, poor fit]
CCOc1ccc2nc(N3CCC(C(=O)Nc4ccccc4CC)CC3)sc2c1 | inactive
CSc1cccc(Nc2cc(C(=O)NCCc3ccc(Cl)cc3)c3ccccc3n2)c1 | inconclusive [inhibitor, partial curve]
COc1ccc(CC(=O)Nc2ccc(-c3nc4cc(C)ccc4o3)c(O)c2)cc1OC | inconclusive [inhibitor, partial curve]
COc1cccc(/C=c2\sc3nc(-c4cccs4)nn3c2=O)c1OC | inconclusive [inhibitor, single point]
Cc1cc(C)c2nc(N3CCC(C(=O)N4CCN(C(=O)c5ccco5)CC4)CC3)sc2c1 | inactive
Cc1ccc(C(=O)NC(=S)Nc2cccc3c(C)cc(C)nc23)cc1 | inactive
Cc1ccc2c(CC(=O)Nc3ccc(S(=O)(=O)N4CCCCC4C)cc3)coc2c1 (centres undefined) | inconclusive [inhibitor, partial curve]
Cc1ccc(N/C=C/c2onc(C)c2[N+](=O)[O-])cc1 | inactive
CCN(CC)S(=O)(=O)c1ccc(NC(=O)Nc2cccc(C(F)(F)F)c2)cc1 | active: 7.94 µM
COc1cccc(Cn2c(C3CC3)nc3ccc(NC(=O)c4ccco4)cc3c2=O)c1 | inconclusive [inhibitor, partial curve, poor fit]
COc1ccc(CNC(=O)CCCn2nc(C)c3sc4ccccc4c3c2=O)cc1OC | inconclusive [inhibitor, partial curve]
COc1ccc(CCN2C(=O)CC(NC34CC5CC(CC(C5)C3)C4)C2=O)cc1OC (centres undefined) | inactive
CCn1c(C(=O)NCc2ccc(OC(C)C)cc2)cc2oc3ccccc3c21 | inconclusive [inhibitor, single point]
Cn1c(C(=O)c2ccncc2)cc2ccccc21 | inactive
O=C(Nc1cc(Cl)cc(Cl)c1)c1ccc2c(c1)N(Cc1cccc(Cl)c1)C(=O)c1ccccc1S2=O (centres undefined) | inconclusive [inhibitor, partial curve]
